Test [1] addresses T1, hGLP1R-MMH (N-terminal region of human GLP1R) (Homo sapiens, UniProt P43220).
T1 construct: the N-terminal ectodomain of human GLP1R expressed with a myc-myc hexahistidine tag
Kind of test: Biacore binding kinetics (surface plasmon resonance). The settings on record: 25° C. As to the method:
The equilibrium dissociation constant (KD) for GLP1R binding to different unconjugated GLP1R monoclonal antibodies (mAbs) or to GLP1R antibody tethered drug conjugates (ATDCs) was determined using a real-time surface plasmon resonance biosensor using a Biacore 3000, Biacore S200, Biacore 4000, Biacore T-200, or a Sierra Sensor MASS-2 instrument. All binding studies were performed in 10 mM HEPES, 150 mM NaCl, 3 mM EDTA, and 0.05% v/v Surfactant Tween-20, pH 7.4 (HBS-ET) running buffer at 25° C. The Biacore CM5 sensor chip surface was first derivatized by amine coupling with human Fc specific mouse mAb (REGN2567) to capture different GLP1R mAbs or ATDCs. Different concentrations (100, 90, 33.3, 30, 11.1, 10, 3.7, 3.3 and 1.1 nM) of the N-terminal region of human GLP1R expressed with a myc-myc-hexahistidine tag (“hexahistidine tag” disclosed as SEQ ID NO: 441) (hGLP1R-MMH) prepared in HBS-ET running buffer were injected over the GLP1R mAb captured surface for 240 or 300 sec at a flow rate of 50 μL/min and their dissociation in HBS-ET running buffer was monitored for 10 minutes. […]
The association rate (ka) and dissociation rate (kd) were determined by fitting the real-time binding sensorgrams to a 1:1 binding model with mass transport limitation using Scrubber 2.0c curve-fitting software. […]

A further test relates to HEK293/CRE-Luc cells. As to the kind of experiment: Flow cytometry cell binding, HEK293/CRE-Luc control cells (Example 18). Further details: species or system human. The settings on record: Table 30, control cells lacking GLP1R. The protocol:
GLP1R agonist linker payloads were conjugated to anti-GLP1R antibodies via N-terminal heavy or light chain Glutamine (Q) tags. Several resulting anti-GLP1R-GLP1R agonist antibody tethered drug conjugates (ATDCs) and their unconjugated parental antibodies were tested for cell-based binding activity. The cell surface binding of the anti-GLP1R ATDCs to human GLP1R (HEK293/CRE-Luc/hGLP1R), cynomolgus GLP1R (HEK293/CRE-Luc/mfGLP1R), and control cells lacking expression of GLP1R (HEK293/CRE-Luc) was assessed via flow cytometry. For the assay, 61,000-230,000 cells were suspended in PBS, w/2% FBS and 0.2% sodium azide (staining buffer) in 96 well V-bottom plates and incubated for 30 minutes at 4° C. with three-fold serial dilutions of the anti-GLP1R ATDCs, non-binding control ATDCs, or unconjugated anti-GLP1R antibodies. […] Samples were run on the iQue flow cytometer (Intellicyte) and results were analyzed using Forecyte analysis software (Intellicyte) to calculate the mean fluorescent intensity (MFI) after gating for live cells. EC50 values were determined using a four-parameter logistic equation over a 10-point dose response curve (GraphPad Prism). The signal to noise (S/N) was determined by taking the ratio of the highest MFI on the dose response curve to the MFI in the secondary alone wells.
(A flow cytometer gives signals particle by particle.)

This note sets out measurements from patent US20230330254A1 (Regeneron Pharmaceuticals, Inc., priority 2022, published 2023).

For orientation: EC50 means the concentration giving half of the maximal effect. The low end stands for greater potency, the high end for weaker potency.

T1 sequence (P43220 24-139 limits assumed): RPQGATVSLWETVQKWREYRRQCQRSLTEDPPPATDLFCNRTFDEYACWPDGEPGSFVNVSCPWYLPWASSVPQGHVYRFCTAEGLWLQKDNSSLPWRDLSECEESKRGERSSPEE

B1: REGN9278-M3190 (conjugate)
heavy: QVQLQQWGAGLLKPSETLSLTCAVYGGSFSGYYWSWIRQPPGKGLEWIGEINHAGSTNYNPSLKSRITISVDTSKNQFSLKLSSVTAADTAVYYCARGWYYGSGSYHRNWFDPWGQGTLVTVSSASTKGPSVFPLAPCSRSTSESTAALGCLVKDYFPEPVTVSWNSGALTSGVHTFPAVLQSSGLYSLSSVVTVPSSSLGTKTYTCNVDHKPSNTKVDKRV[human IgG4 Fc with S228P (EU numbers) left out here]
light: LLQGSGEIVLTQSPGTLSLSPGERATLSCRASQSVYYSYLAWYQQKPGQAPRLLIYGASNRATGIPDRFSGSGSGTDFTLTISRLEPEDFAVYYCQQYGNSPWTFGQGTKVEIKRTVAAPSVFIFPPSDEQLKSGTASVVCLLNNFYPREAKVQWKVDNALQSGNSQESVTEQDSKDSTYSLSSTLTLSKADYEKHKVYACEVTHQGLSSPVTKSFNRGEC
B1 displayed a Ka in test [1] (association rate) of 116000 M⁻¹ s⁻¹. Besides, the “dissociation rate constant (kd)” value in test [1] (dissociation rate) came out at 0.000127 s⁻¹.

B2: REGN9278 unconjugated Ab (antibody)
heavy: QVQLQQWGAGLLKPSETLSLTCAVYGGSFSGYYWSWIRQPPGKGLEWIGEINHAGSTNYNPSLKSRITISVDTSKNQFSLKLSSVTAADTAVYYCARGWYYGSGSYHRNWFDPWGQGTLVTVSSASTKGPSVFPLAPCSRSTSESTAALGCLVKDYFPEPVTVSWNSGALTSGVHTFPAVLQSSGLYSLSSVVTVPSSSLGTKTYTCNVDHKPSNTKVDKRV[human IgG4 Fc with S228P (EU numbers) left out here]
light: LLQGSGEIVLTQSPGTLSLSPGERATLSCRASQSVYYSYLAWYQQKPGQAPRLLIYGASNRATGIPDRFSGSGSGTDFTLTISRLEPEDFAVYYCQQYGNSPWTFGQGTKVEIKRTVAAPSVFIFPPSDEQLKSGTASVVCLLNNFYPREAKVQWKVDNALQSGNSQESVTEQDSKDSTYSLSSTLTLSKADYEKHKVYACEVTHQGLSSPVTKSFNRGEC
In turn, B2 showed an EC50 in the test on HEK293/CRE-Luc cells (no unit printed in table (text reads values as M)) above 100 nM. In addition, the “HEK293/CRE-Luc Flow S/N” value in the test with HEK293/CRE-Luc cells (signal to noise) worked out at 11.9.
